Data: patent US20210054027

Assays:
[1] = target: T1, KFDFCyclic
T1 chain: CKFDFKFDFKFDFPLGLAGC

[2] = target: T2, KLDLCyclic
T2 chain: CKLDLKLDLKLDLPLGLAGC

B1: Porcine pancreatic elastase (protein)
chain: VVGGTEAQRNSWPSQISLQYRSGSSWAHTCGGTLIRQNWVMTAAHCVDRELTFRVVVGEHNLNQNDGTEQYVGVQKIVVHPYWNTDDVAAGYDIALLRLAQSVTLNSYVQLGVLPRAGTILANNSPCYITGWGLTRTNGQLAQTLQQAYLPTVDYAICSSSSYWGSTVKNSMVCAGGDGVRSGCQGDSGGPLHCLVNGQYAVHGVTSFVSRLGCNVTRKPTVFTRVSAYISWINNVIASN
enzymatic cleavage of progelator (LCMS, 5 hr) [1]: KFDFCyclic and KLDLCyclic (data not shown) were treated with MI-associated enzymes, MMP-9 and elastase to confirm enzyme responsiveness | enzymatic cleavage of progelator (data not shown) [2]: KFDFCyclic and KLDLCyclic (data not shown) were treated with MI-associated enzymes, MMP-9 and elastase to confirm enzyme responsiveness
